Reference: publication PMC12136788
Some of the results follow.

T1: UNK ZnF1-3 (human, UniProt Q9C0B0 31-174)
T1 sequence: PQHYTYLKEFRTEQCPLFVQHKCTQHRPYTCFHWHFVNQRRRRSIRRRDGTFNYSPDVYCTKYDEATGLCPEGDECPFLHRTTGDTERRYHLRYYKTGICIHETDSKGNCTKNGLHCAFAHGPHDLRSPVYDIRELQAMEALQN

B1: chr14:103969519:103969520:+_ENSG00000075413_ENST00000216288|hu_mus|FALSE|FALSE (ssRNA)
RNA: GGGAGUUCUACAGUCCGACGAUCAUUACUGGGUUACAGCUUUAGCUCAUUGGCAAUUUUGGAAGCAAUAUUUUUGAAAGCUAUGGAUGUCCCUGAUAUCCGCUUAAACCGGACUCCAUUCAGAGACAGUCUUGGCAGCUUACACAACAGAGGAUUGAGCAUCA
B2: chr3:169711627:169711628:+_ENSG00000008952_ENST00000337002|hu_mus|motif|central (ssRNA)
RNA: GGGAGUUCUACAGUCCGACGAUCCUAAAAACAUACCUUACAUGGUUUUUGUUUUACAAAUUUCAGUGUUGAGAAAUGUCGGAAUAAUAAGUAACAAUUAAAAUAAAAUGUUUUAUUUGUAAAUUAUGUACAGAAUACAUCUUACAACAGAGGAUUGAGCAUCA
B3: chr16:20502619:20502620:+_ENSMUSG00000003235_ENSMUST00000003320|mus_mus|FALSE|FALSE (ssRNA)
RNA: GGGAGUUCUACAGUCCGACGAUCGUCAGCACAAACAGCUGAGUACAUGUGUAGGUUGGAGACCCGGGCACCAUAUUCCCUAGUUGUCACAUGCAAGUGAAUCUGGUUUCCUAGGACCUCCUCAUUCAUUAAUAUGCCUCGUACCAACAGAGGAUUGAGCAUCA
B4: chr13:100192331:100192332:-_ENSMUSG00000052727_ENSMUST00000064762|mus_mus|FALSE|FALSE (ssRNA)
RNA: GGGAGUUCUACAGUCCGACGAUCUAGCAAAUGAUUAAAUUUAUAAAACGAGUAUUAGAAAGCUCCUAAAUUUCAUAAGCUAUUGGAAACACUUAAAACAUUCAUAUACACUGGGGAAACCAUUCACUAUGAUAUGUAACGUUACAACAGAGGAUUGAGCAUCA
B5: chr5:123980014:123980015:-_ENSG00000168916_ENST00000504926|hu_mus|FALSE|FALSE (ssRNA)
RNA: GGGAGUUCUACAGUCCGACGAUCAGGAGAGACAGCCCGGUAUGCAGGGUGGCUGGGGUCAUACAUCUGUGGGUAAGGAUAAGCAUGCAAGUAUUGUAUGUAGGACUGGUGCUGACUCAUGGGUGAGGACACGGCCACUCGUGUCAACAGAGGAUUGAGCAUCA
B6: chr1:39494447:39494448:+_ENSG00000168653_ENST00000372967|hu_mus|hu_hu_hu_mus_False|8_8 (ssRNA)
RNA: GGGAGUUCUACAGUCCGACGAUCGCACCGAGCGGCGUUCUUAUAGGGCUGUUCUGCGCUUAGGAACAUAAAGUGCCGGUCCAGGCUGAUGCCCAGCUUUUUCUGUAUGUCAAGGAAAGGCAUGGCUGAUGCUCGUGCUUGUCACAACAGAGGAUUGAGCAUCA
B7: chr3:9412954:9412955:+_ENSG00000134077_ENST00000452837|hu_mus|hu_hu_hu_mus_False|8_18 (ssRNA)
RNA: GGGAGUUCUACAGUCCGACGAUCGGUUGAUAUCUCUUCUUUGAUGGCUGGAUUUUCAUAAUAGUCCAAGAUAUGUGAAUCUGAAGUGCUGCUGGCAUGCUUUUUCUUACCAUCUUUCUGAUCGAUUUUGACUUCUUGUCCACACAACAGAGGAUUGAGCAUCA
B8: 195243423_195243543_1189_3pUTR_ENSG00000184203_ENST00000328432|human|control|control (ssRNA)
RNA: GGGAGUUCUACAGUCCGACGAUCAAUUAACCAGUGUUUUUACAAAAGUAAUGCAGUUUUGGACUGAUGAUAUUACACUGUAUUUGUGGUAAAGUACUAGGCACAAGAAUAUAUAUAUCGAUUAGGCAUUUUCAGUCUAAUCAGCAACAGAGGAUUGAGCAUCA
B9: chr16:16324163:16324164:-_ENSMUSG00000022789_ENSMUST00000023477|mus_hu|motif|central (ssRNA)
RNA: GGGAGUUCUACAGUCCGACGAUCUCUAAUGGCAGUCAAAAUGUCAAUAGUGUUAAGGCCACCAAGUGGAUCAACAGAUUCGGAGGUUCGCCCAAAAGUCUCAUGGAAAAUAUAACAAAUUCUAGCACCACCGCAUAGCUCCGACAACAGAGGAUUGAGCAUCA
B10: chr15:80081215:80081216:+_ENSMUSG00000022412_ENSMUST00000023048|mus_hu|FALSE|FALSE (ssRNA)
RNA: GGGAGUUCUACAGUCCGACGAUCCCUGCAAAUAACUUUGCAUUCAGCUUAUCCUGUGUGGGUCAUUAACAGUGUUCCCAUGAGAGACAUUCUCAGCAUUUAUGAAUGGGUCAGGAGGUUGGGGGGAGGAUGGACUUCUACUCCCAACAGAGGAUUGAGCAUCA
B11: chr16:8992458:8992459:-_ENSG00000187555_ENST00000381886|hu_mus|motif|central (ssRNA)
RNA: GGGAGUUCUACAGUCCGACGAUCUUGUCUUGGCUUGAAGAAUUGUAGAAGAUCUCUUAAAGUACCUUCGUAAUUAUGCCGGAGAGGAUUACCGGGGCCGUCCCUAUAACCUUGAGACUUGAAAAACUGCAGCAGCAUGGGGUCCAACAGAGGAUUGAGCAUCA
B12: chr2:39052001:39052002:-_ENSMUSG00000026753_ENSMUST00000028087|mus_hu|FALSE|FALSE (ssRNA)
RNA: GGGAGUUCUACAGUCCGACGAUCCAACUGGUAUCAAAUUAACACAUCAGCAUUACAAGUAUUAAAUGUUUUUCUAUUACUAUAGAGGAUAUAAACCAAAACAUUAAUAUGGCAGUUAUGUUCUUUAGGCACAGUUUAGUGAUUCAACAGAGGAUUGAGCAUCA
B13: 148321547_148323037_4512_CDS_ENSMUSG00000025261_ENSMUST00000112622|mouse|control|control (ssRNA)
RNA: GGGAGUUCUACAGUCCGACGAUCGGAGGCCUGUGGCAGGGUAGCCAUCUGACUGAUCCACUCUGAAACUGUUUUUGUGUCACUUGUUGUUAGAGGAAGAGCAGCUUUGAUCAAUACAUCAGCAGCUUCCCACACCUGGUUGACCAACAGAGGAUUGAGCAUCA
B14: chr7:141441981:141441982:+_ENSG00000106028_ENST00000265304|hu_mus|hu_hu_hu_mus_False|1_18 (ssRNA)
RNA: GGGAGUUCUACAGUCCGACGAUCCUCAUGUCUUACAAACUGACGAAAUACCUGUAACACAGGUCUUCGAAACAUGGCUUCUGUUUUUCUUACAACCUAAUCUUUAGGCUUUUCCUACCUGACGAUCAGAAAAGAGAAGCCCAGCAACAGAGGAUUGAGCAUCA
B15: chr1:153210542:153210543:+_ENSMUSG00000023150_ENSMUST00000023918|mus_mus|FALSE|FALSE (ssRNA)
RNA: GGGAGUUCUACAGUCCGACGAUCUUGCAGUUAGCAACAUCUACCCCACCCACCCUCCUUAUUCACAAGUGUACCUCUACUAAACACAAUUACAUCACUAAGCCUGUUAGUUUGGGGUUCUUAAAUUUGUUAAAACUGGAAAAUCAACAGAGGAUUGAGCAUCA
B16: chr3:150289932:150289933:+_ENSG00000144895_ENST00000460851|hu_hu|hu_hu_hu_mus_False|18_18 (ssRNA)
RNA: GGGAGUUCUACAGUCCGACGAUCCUUGUAGUUUUUAACAUCCCAUACUUCCAUUUGUCCUCGAAGAUUUCCAAAUCCAGCCAGCACUAAUAUAUGUCCAUGAGGGCUAUAGAAGGCUGCAUUACGAGGACCAGUCCCAAAGUCCAACAGAGGAUUGAGCAUCA
B17: chr14:55515796:55515797:+_ENSMUSG00000022194_ENSMUST00000116476|mus_mus|FALSE|FALSE (ssRNA)
RNA: GGGAGUUCUACAGUCCGACGAUCGAACAGGGACUCAUCUAAGGCCAGGGACGUCCUCACUGACUCUUUGUCCGAGAACUCUAUAUAUGCAAACCCUUUGGGAUGGCCACUAAAUUUGUCACAGAGUAUAGUAACACGGUUGACCAACAGAGGAUUGAGCAUCA
B18: chr1:192983433:192983434:-_ENSG00000116750_ENST00000367455|hu_hu|FALSE|FALSE (ssRNA)
RNA: GGGAGUUCUACAGUCCGACGAUCAUCACAAGGGAUUUGCAAUCACCAAAGAAGAUGCAGAUAAAAUAAACCACUCUUAAGCUAUGGAAAUUCCUAUUAAGGAAUUUUAUUAGAUUAAUAAGAAAAAUCCUUAUACCUAUUAAUCAACAGAGGAUUGAGCAUCA
B19: chr4:148702617:148702618:-_ENSMUSG00000028960_ENSMUST00000103212|mus_hu|FALSE|FALSE (ssRNA)
RNA: GGGAGUUCUACAGUCCGACGAUCUUAGGAAUUGAACAGAGGACAUUGUCUGUGGAGGGAAAAAAGGAAAAGAAAAAAGAAAGUAUGCUUUUUAUAGACUUAAUUUCUUCAGAACACUUUAUGGUUUCAAAUCCUUUUUUUUUUCAACAGAGGAUUGAGCAUCA
B20: chr11:77336104:77336105:-_ENSG00000074201_ENST00000525064|hu_mus|hu_hu_hu_mus_False|28_68 (ssRNA)
RNA: GGGAGUUCUACAGUCCGACGAUCCUCACACAUUGCUGUGAACAUCGCCUCCAAUGCUGACUUAUCACUAGGCACAAAUCGAAAUUCAGAAAUGGGUUCAACAUCAUCAUCACUGUCCUCAUCUUCAUCAGAGAGAGGUUCUUUCAACAGAGGAUUGAGCAUCA
B21: 99631881_99632001_2047_3pUTR_ENSG00000106261_ENST00000324306|human|control|control (ssRNA)
RNA: GGGAGUUCUACAGUCCGACGAUCGAUUAUAUGCCCAACUACUACAUAAAGGCAGAACACUGCUGAUGUGACUAGAAGGAUCCUUAAGUGUGACUUUUGUUUUUUAAUCUGUUGAGGCUGUAUUUCUUUUUCCCUCCAGGAGCACAACAGAGGAUUGAGCAUCA
B22: 142888890_142889010_6276_CDS_ENSMUSG00000031004_ENSMUST00000033310|mouse|control|control (ssRNA)
RNA: GGGAGUUCUACAGUCCGACGAUCGGGCUGAGCCCUGAUCUUAGGUGUCUGUGGCCUCCUCUUAUGUCCUGAUGAAUUUCCUGUGAAAUCCAGUUUCUGCUUUGGAGUUUCCAUGAAGGCUGUGCUGUCAUUUUCUUCCUGCACCAACAGAGGAUUGAGCAUCA

Target: T1, UNK ZnF1-3
Assay: nsRBNS (natural sequence RNA bind-n-seq); RBNS binding buffer (assumed for nsRBNS): 25 mM Tris pH 7.5, 150 mM KCl, 3 mM MgCl2, 0.01% Triton X-100, 500 ug/ml BSA, 20 U/ml SUPERase-In, 4 C; UNK is unkempt and MSI1 is Musashi-1; names of the RNAs are library labels; protein concentration not given here; high values mean tight binding

Row | Binder | binding signal [enrichment R]
1 | B1 | 0.596
2 | B2 | 0.501
3 | B3 | 0.737
4 | B4 | 1.15
5 | B5 | 0.665
6 | B6 | 0.849
7 | B7 | 0.353
8 | B8 | 0.761
9 | B9 | 1.28
10 | B10 | 1.11
11 | B11 | 1.9
12 | B12 | 0.817
13 | B13 | 1.96
14 | B14 | 0.623
15 | B15 | 2.09
16 | B16 | 1.18
17 | B17 | 1.91
18 | B18 | 0.34
19 | B19 | 0.855
20 | B20 | 1.08
21 | B21 | 1.32
22 | B22 | 0.532
